± gives the uncertainty stated by the source. The source holds more than one record for some entries. The other results are left out here. The source may hold further records. Results that share an entry repeat one measurement in other runs, samples, wells, individuals or studies. A tag in brackets gives the origin of a value. Letters hold for one entry only.

As to `C[N+](=O)[O-]`, the viscosity reads like this: (298.15 K, 101 kPa) 0.6313 ± 0.064 mPa·s [study A] and 0.637 ± 0.026 mPa·s [study B] and 0.622 ± 0.006 mPa·s [study C] and 0.6469 ± 0.0072 mPa·s [study D] and 0.616 ± 0.006 mPa·s [study E] and 0.619 ± 0.006 mPa·s [study F]; (303.15 K, 101 kPa) 0.6062 ± 0.016 mPa·s [study A] and 0.6158 ± 0.0071 mPa·s [study B] and 0.584 ± 0.006 mPa·s [study C] and 0.594 ± 0.007 mPa·s [study D]; (308.15 K, 101 kPa) 0.5717 ± 0.015 mPa·s [study A] and 0.5833 ± 0.0069 mPa·s [study B] and 0.561 ± 0.006 mPa·s [study C] and 0.563 ± 0.006 mPa·s [study D] and 0.564 ± 0.007 mPa·s [study E]; (313.15 K, 101 kPa) 0.5266 ± 0.013 mPa·s [study A] and 0.5537 ± 0.0068 mPa·s [study B] and 0.545 ± 0.006 mPa·s [study C] and 0.536 ± 0.007 mPa·s [study D].

For the compound `Cc1cccc(O)c1`, the viscosity (303.15 K, 101 kPa) is 10.21 ± 0.26 mPa·s [study A] and 9.47 ± 0.13 mPa·s [study B] and 9.802 ± 0.081 mPa·s [study C] and 8.929 ± 0.062 mPa·s [study D].

As to `CC(=O)c1ccc(C)cc1`, under “308.15 K, 101 kPa”, the viscosity was 1.592 ± 0.049 mPa·s [study A] and 1.536 ± 0.014 mPa·s [study B] and 1.536 ± 0.021 mPa·s [study C] and 1.536 ± 0.02 mPa·s [study D].

As to `CCCCOCCOCCOCCO`, the viscosity (298.15 K, 101.33 kPa) was 9.109 ± 0.11 mPa·s and 0.846 ± 0.008 mPa·s.

What is called viscosity is the resistance of a fluid to flow. High values mean a thick fluid, low ones a thin fluid.

Values taken from the CheMixHub viscosity set.
